The list shows a part of the results. Sequences were assembled here from the parent chain. Inactive controls read about 0.05.
B1: TEV protease; numbered along this chain (parent)
chain: MGESLFKGPRDYNPISSSICHLTNESDGHTTSLYGIGFGPFIITNKHLFRRNNGTLVVQSLHGVFKVKDTTTLQQHLVDGRDMIIIRMPKDFPPFPQKLKFREPQREERICLVTTNFQTKSMSSMVSDTSCTFPSGDGIFWKHWIQTKDGQCGSPLVSTRDGFIVGIHSASNFTNTNNYFTSVPKNFMELLTNQEAQQWVSGWRLNADSVLWGGHKVFMVKPEEPFQPVKEATQL

Variants of: B1
Assay: raw area under fraction-flipped curve 0-4 h after induction (AUC4h, not background-subtracted), DNA-recorder readout of cleavage of the substrate (dimensionless); higher = more cleavage of the substrate by the protease variant
Conditions: temperature: 34 °C; time window: 0-4 h after rhamnose induction
Protocol: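 In vivo DNA recorder in E. coli TOP10(DE3) ΔrhaA at 34 °C. Each TEVp single-site mutant (parent TEVp 0) is paired with a single-site variant of the 7-mer TEVs (canonical ENLYFQ|S). The substrate sits between flexible linkers in a Bxb1-sfGFP-TEVs-SsrA fusion, so cleavage stabilises Bxb1 and speeds flipping of a recombination array, read by NGS. The value is the raw area under the fraction-flipped curve over 0-4 h after rhamnose induction (AUC4h), with ≥20 reads per time point. It is not background-subtracted; inactive controls average about 0.047.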
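Note: Bxb1 expression induced with 0.2% (w/v) L-rhamnose at OD600 near 0.5, cultures sampled hourly, flipped fraction per protease–substrate barcode pair counted by paired-end Illumina sequencing.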

Variant | area with substrate ANLYFQS | area with substrate CNLYFQS | area with substrate DNLYFQS | area with substrate FNLYFQS | area with substrate GNLYFQS | area with substrate HNLYFQS | area with substrate INLYFQS | area with substrate LNLYFQS | area with substrate MNLYFQS | area with substrate NNLYFQS | area with substrate PNLYFQS | area with substrate SNLYFQS | area with substrate TNLYFQS | area with substrate VNLYFQS | area with substrate WNLYFQS | area with substrate YNLYFQS | area with substrate KNLYFQS | area with substrate QNLYFQS | area with substrate RNLYFQS
MGESLFKGPRDYNPISSSICHLTNPSDGHTTSLYGIGFGPFIITNKHLFRRNNGTLVVQSLHGVFKVKDTTTLQQHLVDGRDMIIIRMPKDFPPFPQKLKFREPQREERICLVTTNFQTKSMSSMVSDTSCTFPSGDGIFWKHWIQTKDGQCGSPLVSTRDGFIVGIHSASNFTNTNNYFTSVPKNFMELLTNQEAQQWVSGWRLNADSVLWGGHKVFMVKPEEPFQPVKEATQL [E25P] | 0.0479 | 0.053 | 0.0598 | 0.0596 | 0.068 | 0.0567 | 0.0453 | 0.04 | 0.0511 | 0.0538 | 0.0571 | 0.0562 | 0.057 | 0.0266 | 0.0532 | 0.0342 | – | – | –
MGESLFKGPRDYNPISSSICHLTNESDGHTTSLYGIGFGPFIITNKHLFRRNNGTLVVQSLHGVFKVKDTTTLQQHLVDGRDMIIIRMPKDFPPFPQKLKFREPQREERICLVTTNFQTKSMSSMVSDTSCTFPSGDGIFWKHWIQTKDGQCGSLLVSTRDGFIVGIHSASNFTNTNNYFTSVPKNFMELLTNQEAQQWVSGWRLNADSVLWGGHKVFMVKPEEPFQPVKEATQL [P155L] | 0.0786 | 0.0491 | 0.0589 | 0.0186 | 0.0572 | 0.0528 | – | 0.0479 | 0.0527 | 0.0527 | 0.054 | 0.0438 | 0.0564 | 0.0609 | 0.05 | 0.0631 | 0.0594 | 0.0441 | 0.056
MGESLFKGPRDYNPISSSICHLTNESDGHTTSLYGIGFGPFIITNKHLFRRNNGTLVVQSLHGVFKVKDTTTLQQHLVDGRDMIIIRMPKDFPPFPQKLKFREPQREERICLVTTNFQTKSMSSMVSDTSCTFPSGDGIFWKHWIQTKDGQCGSPLVSTRDGFIVGIHSASNFTNTNNYFTSVPKNFMELLTNQEAQQWVSAWRLNADSVLWGGHKVFMVKPEEPFQPVKEATQL [G202A] | 0.0052 | 0.0738 | 0.0632 | 0.0545 | 0.0611 | 0.0683 | 0.0558 | 0.0872 | 0.0354 | – | – | 0.0681 | 0.0579 | – | 0.06 | 0.0586 | 0.0665 | – | –
MGESLFKGPRDYNPISSSICHLTNESDGHTTSLYGIGFGPWIITNKHLFRRNNGTLVVQSLHGVFKVKDTTTLQQHLVDGRDMIIIRMPKDFPPFPQKLKFREPQREERICLVTTNFQTKSMSSMVSDTSCTFPSGDGIFWKHWIQTKDGQCGSPLVSTRDGFIVGIHSASNFTNTNNYFTSVPKNFMELLTNQEAQQWVSGWRLNADSVLWGGHKVFMVKPEEPFQPVKEATQL [F41W] | 0.0486 | 0.0661 | 0.0661 | – | – | 0.0603 | 0.0546 | – | 0.0658 | 0.0516 | 0.0631 | – | 0.0651 | – | 0.0654 | 0.0565 | 0.0578 | – | –
MGESLFKGPRDYNPISSSICHLTNESDGHTFSLYGIGFGPFIITNKHLFRRNNGTLVVQSLHGVFKVKDTTTLQQHLVDGRDMIIIRMPKDFPPFPQKLKFREPQREERICLVTTNFQTKSMSSMVSDTSCTFPSGDGIFWKHWIQTKDGQCGSPLVSTRDGFIVGIHSASNFTNTNNYFTSVPKNFMELLTNQEAQQWVSGWRLNADSVLWGGHKVFMVKPEEPFQPVKEATQL [T31F] | 0.0608 | 0.0691 | 0.0743 | 0.0564 | – | 0.0632 | 0.0696 | – | – | – | 0.0582 | 0.0714 | 0.0608 | 0.0618 | 0.054 | 0.0597 | – | – | –
MGESLFKGPRDYNPISSSICHLTNESDGHTTSLYGIGFGPFIITNKHLFRRNNGTLVVQSLHGVFKVKDTTTLQQHLVDGRDTIIIRMPKDFPPFPQKLKFREPQREERICLVTTNFQTKSMSSMVSDTSCTFPSGDGIFWKHWIQTKDGQCGSPLVSTRDGFIVGIHSASNFTNTNNYFTSVPKNFMELLTNQEAQQWVSGWRLNADSVLWGGHKVFMVKPEEPFQPVKEATQL [M83T] | 0.0606 | 0.0561 | 0.0665 | 0.0646 | – | 0.0648 | 0.0654 | – | 0.0556 | – | 0.0625 | – | 0.073 | – | – | 0.0522 | – | – | –
MGESLFKGPRDYNPISSSICHLTNESDGHTTSLYGIGFGPFIITNKHLFRRNNGTLVVQSLHGVFKLKDTTTLQQHLVDGRDMIIIRMPKDFPPFPQKLKFREPQREERICLVTTNFQTKSMSSMVSDTSCTFPSGDGIFWKHWIQTKDGQCGSPLVSTRDGFIVGIHSASNFTNTNNYFTSVPKNFMELLTNQEAQQWVSGWRLNADSVLWGGHKVFMVKPEEPFQPVKEATQL [V67L] | 0.0745 | 0.0665 | 0.073 | 0.0488 | 0.0655 | 0.0533 | – | – | 0.0672 | 0.0636 | 0.0601 | 0.0499 | 0.0745 | – | 0.0534 | – | 0.0659 | – | –
MGESLFKGPRDYNPISSSICHLTNESDGHTTSLYGIGFGPFIITNKHLFRRNNGTLVVQSLHGVFKVKDTTTLQQHLVDGRDMIIIRMPKDFPPFPQKLKFREPQREERICLVTTNFQTKSMSSMVSDTSCTFPSGDGIFWKHWIQTKDGQCGSPLVSTRFGFIVGIHSASNFTNTNNYFTSVPKNFMELLTNQEAQQWVSGWRLNADSVLWGGHKVFMVKPEEPFQPVKEATQL [D161F] | 0.0442 | 0.055 | 0.0456 | 0.0367 | 0.0581 | 0.0469 | 0.0445 | – | 0.0644 | 0.0298 | 0.0565 | 0.0484 | 0.0524 | – | 0.0388 | – | 0.0593 | – | 0.0648
MGESLFKGPRDYNPISSSICHLTNESDGHTTSLYGIGFGPFIITNKHLPRRNNGTLVVQSLHGVFKVKDTTTLQQHLVDGRDMIIIRMPKDFPPFPQKLKFREPQREERICLVTTNFQTKSMSSMVSDTSCTFPSGDGIFWKHWIQTKDGQCGSPLVSTRDGFIVGIHSASNFTNTNNYFTSVPKNFMELLTNQEAQQWVSGWRLNADSVLWGGHKVFMVKPEEPFQPVKEATQL [F49P] | 0.0575 | 0.0627 | 0.0604 | – | 0.0524 | 0.0527 | 0.052 | – | 0.0491 | – | 0.073 | 0.0476 | 0.0552 | 0.0577 | 0.054 | 0.0575 | – | – | –
